Assay results from PubChem BioAssay AID1030 (National Center for Advancing Translational Sciences (NCATS), 2008).
Screen size: about 220,000 compounds; about 16,000 (7.3%) were called active. Inconclusive results, whose numbers are uncertain, are shown with a selection of clear calls. The call rests on the fitted dose curve; in most records, active means well fitted inhibition curve with a large enough effect (not every such curve was filed as active); inconclusive means small, poorly fitted or top-dose-only effect, or another doubt; inactive means no such curve, though single readings can be large or run the other way. Potencies of inconclusive entries are left out as doubtful fits.

biological target: Aldehyde dehydrogenase 1A1 (Homo sapiens) (UniProt P00352); experiment: qHTS Assay for Inhibitors of Aldehyde Dehydrogenase 1 (ALDH1A1); conditions: Purified ALDH1A1, NADH fluorescence, propionaldehyde substrate; series mostly up to 75.3 µM
Potency means the concentration at half of the fitted maximal effect; tags describe the fitted curve by direction and shape.

Chain of UniProt P00352 (P00352 whole entry, looked up): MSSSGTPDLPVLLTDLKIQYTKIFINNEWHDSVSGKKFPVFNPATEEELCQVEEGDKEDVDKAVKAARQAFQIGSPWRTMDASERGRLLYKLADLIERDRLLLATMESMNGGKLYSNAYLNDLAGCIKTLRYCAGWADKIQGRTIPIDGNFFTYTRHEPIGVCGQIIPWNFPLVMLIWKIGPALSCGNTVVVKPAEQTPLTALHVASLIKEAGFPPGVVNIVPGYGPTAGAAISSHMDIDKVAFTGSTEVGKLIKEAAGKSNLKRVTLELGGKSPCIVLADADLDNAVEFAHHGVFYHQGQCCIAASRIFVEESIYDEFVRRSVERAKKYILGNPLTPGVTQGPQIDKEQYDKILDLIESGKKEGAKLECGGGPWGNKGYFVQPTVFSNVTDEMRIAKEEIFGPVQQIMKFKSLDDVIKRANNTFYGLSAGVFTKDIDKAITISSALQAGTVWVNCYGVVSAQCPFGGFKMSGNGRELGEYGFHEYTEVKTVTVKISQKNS

| SMILES | Potency |
| --- | --- |
| Cn1cccc1-c1cc(C(=O)N2CCc3c([nH]c4ccccc34)C2c2ccccn2)[nH]n1 (stereo unspecified) | active: 12.6 µM |
| O=C(CSc1n[nH]c(-c2ccccc2)n1)c1ccccc1 | inconclusive [inhibitor, single point] |
| O=C(Nc1ccccc1)NC1CCN(CCCN2C(=O)c3ccccc3C2=O)CC1 | inconclusive [inhibitor, single point] |
| C=CCn1c(O)c(N=NC(=O)CNC(=O)c2ccco2)c2ccccc21 | inconclusive [inhibitor, partial curve] |
| Cc1cc(C(=O)Cn2nnc3ccccc3c2=O)c(C)n1-c1ccccc1F | inconclusive [inhibitor, single point] |
| COC(=O)c1ccc(/C=N/NS(=O)(=O)c2cc(C)ccc2C)cc1 | inconclusive [inhibitor, single point] |
| COc1ccccc1/C=C/C=N/N1CCN(Cc2ccc(Cl)cc2)CC1 | active: 17.8 µM |
| CN(C)c1nc(N(C)C)nc(N2CC(=O)N(c3ccccc3)C2=N)n1 | active: 1.41 µM |
| O=C(c1ccccc1)c1ccc(O)cc1O | inactive |
| C/C=C/c1ccc(Oc2nnnn2-c2ccc(C(=O)O)cc2)c(OC)c1 | inconclusive [inhibitor, single point] |
| O=C(COc1ccc(Br)cc1)Nc1cc(S(=O)(=O)N2CCCCC2)ccc1N1CCCCC1 | inactive |
| Cc1ccc(C)c(NC(CC(=O)c2ccccc2)C(=O)OCC(=O)c2cccs2)c1 (stereo unspecified) | active: 7.08 µM |
| O=C(O)CCCCCN1C(=O)C(O)=C(C(=O)/C=C/c2ccccc2)C1c1ccc2c(c1)OCO2 (stereo unspecified) | inconclusive [inhibitor, single point] |
| CCn1c(CNC(C)=O)nnc1SCC(=O)c1ccc(Br)cc1 | active: 15 µM |
| COc1ccc(NC(=O)O/N=C/c2c(C)nn(C(C)(C)C)c2C)cc1 | inconclusive [inhibitor, single point] |
| CC1(OC(=O)CCc2ccccc2)C(=O)C=C2C=C(c3ccc(C#N)cc3)N(Cc3ccco3)C=C2C1=O (stereo unspecified) | inconclusive [inhibitor, single point] |
| Cc1cc(C)c2c(N)c(C(=O)c3cccc(Cl)c3)sc2n1 | inconclusive [inhibitor, partial curve] |
| CCCCNC(=S)NCCN1CCCCC1 | inconclusive [inhibitor, single point] |
| CCNC(=S)N/N=C(\C)c1ccc2ccccc2c1 | inactive |
| Cc1cc2nc(N)sc2cc1[N+](=O)[O-] | inactive |
| Cc1cccc(NC(=S)NNC(=O)c2csc(C)c2)c1 | inconclusive [inhibitor, single point] |
| Cc1cnc(CNc2cc(-c3ccoc3)ncn2)cn1 | inconclusive [inhibitor, single point] |
| CC(c1ccccc1)C1C(C#N)=C(N)OC2=C1C(=O)CC(C)(C)C2 (stereo unspecified) | inconclusive [inhibitor, partial curve] |
| C/C(=N\NC(=O)c1csc2ccccc12)c1ccc(O)cc1 | inconclusive [inhibitor, single point] |
| NS(=O)(=O)c1ccc(N=Nc2c[nH]c(=O)c(O)c2)cc1 | inconclusive [inhibitor, single point] |
| NC(=O)C1CCN(C(=O)CSc2nc3c(c(-c4ccccc4)n2)CCCC3)CC1 | inconclusive [inhibitor, single point] |

| SMILES | Potency |
| --- | --- |
| COc1ccc(NC(=O)N2CC[C@@]3(CCCN(C(=O)c4ccco4)C3)C2)cc1 | inactive |
| CCCCN(CC)Cc1ccc(CNC(=S)Nc2ccccc2F)o1 | inconclusive [inhibitor, single point] |
| Cc1ccc(S(=O)(=O)NNC(=O)c2ccc(O)cc2)cc1 | inactive |
| CN(CC(CC(=O)Nc1nncs1)c1ccccc1)S(=O)(=O)c1ccc(Br)cc1 (stereo unspecified) | active: 12.6 µM |
| CCc1ccc(OCCCC(=O)NCc2ccco2)cc1 | inconclusive [inhibitor, single point] |
| Cc1cccc(Oc2coc3cc(OC(=O)c4cccs4)ccc3c2=O)c1 | inconclusive [inhibitor, single point] |
| CC(=O)C1=C(NC(=O)c2ccc(F)cc2)CC2C1C2(C)C (stereo unspecified) | inconclusive [inhibitor, single point] |
| COc1cc2[nH]c(-c3cccc(F)c3)cc(=O)c2cc1OC | inconclusive [inhibitor, single point] |
| Cc1cc(C)nc(-n2ncc3c2CC(c2cccc(Cl)c2)CC3=O)n1 (stereo unspecified) | inactive |
| CC(=O)Oc1ccc(N2C(=O)C3C4C=CC(C5CC45)C3C2=O)cc1[N+](=O)[O-] (stereo unspecified) | active: 6.31 µM |
| COc1ccc(/C=N/NC(=O)Nc2cccc3nsnc23)c(OC)c1 | inconclusive [inhibitor, partial curve] |
| O=P(O)(O)c1ccccc1OCCOCCOc1ccccc1P(=O)(O)O | inconclusive [inhibitor, single point] |
| O=C(Nc1ccc2c(c1)OCCO2)C1CCN(S(=O)(=O)c2ccc(Br)s2)CC1 | inconclusive [inhibitor, single point] |
| N=C(N)c1ccc(N2CCN(C3CCN(CC(=O)O)CC3)CC2)cc1 | inactive |
| CC(=O)NC1C(Oc2cccc(C)c2)OC2COC(c3ccco3)OC2C1O (stereo unspecified) | inconclusive [inhibitor, partial curve] |
| C=CCn1c(=N)c(C(=O)NCCCOC)cc2c(=O)n3cc(C)ccc3nc21 | inconclusive [inhibitor, partial curve] |
| O=C(O)c1ccc(CSc2nc3ccc(N4C(=O)C5C6C=CC(C6)C5C4=O)cc3s2)cc1 (stereo unspecified) | active: 28.2 µM |
| O=C(CSc1nnc(NC2CCCCC2)s1)Nc1ccc(N2CCOCC2)cc1 | inconclusive [inhibitor, single point] |
| O=C(c1cnccn1)N1CCC[C@@]2(CCN(Cc3nccs3)C2)C1 | inactive |
| COc1ccc(-c2nc3c(c4c2C[C@H](c2ccccc2)OC4)CN(C(=O)c2cc(I)ccc2F)CC3)c(C)c1 | active: 1.12 µM |
| Clc1ccc(Nc2ccc(-n3ccnc3)nn2)cc1Cl | inactive |
| CCOC(=O)c1c(NC(=O)CSc2nnc(CNC(=O)c3ccco3)n2C)sc2c1CCC2 | inconclusive [inhibitor, single point] |
| CC1(C)CC(=S)Nc2ccccc2S1 | active: 10 µM |
| COC(=O)C(NC(C)=O)(Nc1ccc(C)cn1)C(F)(F)F (stereo unspecified) | inactive |
| O=C(CSc1nnc2scc(-c3ccccc3)n12)N1CCCc2ccccc21 | active: 11.2 µM |
| c1ccc(CSc2nnnn2-c2cccc3ccccc23)nc1 | active: 20 µM |

| SMILES | Potency |
| --- | --- |
| CCc1ccc(NC(=S)NC2CC3CCCC(C2)N3Cc2cccs2)cc1 (stereo unspecified) | inconclusive [inhibitor, single point] |
| Cc1ccccc1NS(=O)(=O)c1cc(C(=O)NCCSC2CCCCC2)ccc1C | inconclusive [inhibitor, single point] |
| CC1(C)CC(=O)C(CC2=C(O)CC(C)(C)CC2=O)C(=O)C1 | active: 11.2 µM |
| CCN(C(=O)c1ccc(Cl)c([N+](=O)[O-])c1)c1ccccc1 | active: 12.6 µM |
| CS(=O)(=O)NCC(c1ccco1)N1CCN(c2ccc(F)cc2)CC1 (stereo unspecified) | inactive |
| CCn1nnnc1SCC(=O)Nc1ccc(OC)cc1 | inactive |
| O=C1CC(=O)N(CCc2ccccc2)C(=O)N1CCc1ccccc1 | inactive |
| COc1ccc(-n2c(C)cc(C(=O)COC(=O)Cc3n[nH]c(=O)c4ccccc34)c2C)cc1 | inactive |
| Cc1cccc2nc(Cn3c(=O)n(CCCC(=O)NCc4ccco4)c(=O)c4ccccc43)cc(=O)n12 | active: 20 µM |
| COc1cc([N+](=O)[O-])cc(/C=N/NC(=O)CC#N)c1O | active: 14.1 µM |
| CCC(=O)NC(=S)Nc1ccc(-c2nc3ccc(C)cc3s2)cc1 | inactive |
| CCOC(=O)c1sc(=S)n(C)c1C | inactive |
| CCCCC/C=C\C/C=C\C/C=C\C=C\[C@@H](O)CCCC(=O)O | inactive |
| Cc1ccc(Cl)cc1NC(=S)N(Cc1cccnc1)Cc1ccccc1Cl | active: 11.2 µM |
| COc1ccc(C(=O)Nc2ccc(N3CCN(C(=O)c4ccccc4)CC3)cc2)cc1[N+](=O)[O-] | inconclusive [inhibitor, single point] |
| O=C1C=C(Nc2ccc(O)cc2)CC(c2ccco2)C1 (stereo unspecified) | inconclusive [inhibitor, single point] |
| COc1ccc2[nH]c(=O)c(CN(C(=O)c3cccnc3)c3ccccc3OC)cc2c1 | inconclusive [inhibitor, partial curve] |
| O=C(CSc1nc2ccccc2c(=O)n1-c1ccccc1Cl)Nc1cccc(S(=O)(=O)N2CCOCC2)c1 | inactive |
| CCC1(C)Cc2c(sc3nnn(CC(=O)Nc4ccc(Cl)cc4)c(=O)c23)CO1 (stereo unspecified) | inactive |
| CCOC(=O)c1ccc(NC(=O)C(=O)NCc2ccc(/C=C(/C#N)C(=O)NCCOC)o2)cc1 | inconclusive [inhibitor, single point] |
| C=CCN1C(c2ccccc2)=CS/C1=C(\C#N)c1nnc2n1CCCCC2 | active: 17.8 µM |
| c1ccc2c(c1)nc(N1CCOCC1)c1c3ccccc3[nH]c21 | inconclusive [inhibitor, partial curve] |
| CC(NCC(O)COC1CCC(C(C)(C)C)CC1)c1ccccc1 (stereo unspecified) | inactive |
| COc1cccc(NC(=S)N2CCN(c3ccccn3)CC2)c1 | inconclusive [inhibitor, partial curve] |
